# ± gives the uncertainty stated by the source. The full ranking holds about 9,900 compounds; the median of “viability index relative to DMSO control” is about 1, and the lowest 2% start at about 0.85. This is one part of the list.
# System: Plasmodium falciparum NF54 stage V gametocytes
# Experiment: viability index relative to DMSO control (fraction); higher = less gametocyte killing
# Settings: 2.5 µM, library set: Broad Institute DOS, incubation time: 72 h
# In short: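 Stage V gametocytes of P. falciparum NF54 were held in serum-free screening medium at 0.75% gametocytemia and 1.25% hematocrit, 10 µl per well of a 1,536-well plate, and exposed to compound at 2.5 µM for 72 hr at 37°C under low oxygen. A 3 µl mix of 2.5 µM MitoTracker Red CMXRos with 0.13% saponin was then added for one to two hours, after which one field per well was imaged and red particles of 20–70 µm2 were counted. The viability index equals this count divided by the plate mean from wells given solvent alone.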
row,SMILES,viability index
1,C[C@H](CO)N1C[C@H](C)[C@@H](CN(C)C(=O)Nc2ccccc2)Oc2ccc(NS(=O)(=O)c3ccc(F)cc3)cc2C1=O,0.973 ± 0.037
2,CO[C@@H]1CN(C)C(=O)c2cc(NS(=O)(=O)c3cccc(Cl)c3)ccc2OC[C@H](C)NC[C@@H]1C,0.978 ± 0.07
3,N[C@@H]1CC[C@@H](CCn2cc(C3(O)CCCC3)nn2)O[C@H]1CO,0.964 ± 0.091
4,CN(C)CC(=O)N1[C@H](CO)[C@H](c2ccccc2-c2ccccc2F)[C@@H]1C#N,1.19 ± 0.06
5,CC(C)CC#Cc1ccc([C@H]2[C@@H](CO)N3C(=O)CN(S(=O)(=O)c4cccc(F)c4)C[C@@H]23)cc1,0.964 ± 0.022
6,CCCNC(=O)N1[C@H](C#N)[C@@H](c2ccccc2C2=CCCCC2)[C@@H]1CO,1 ± 0.056
7,Cc1ccccc1-c1ccc([C@@H]2[C@@H]3CN(S(=O)(=O)Cc4ccccc4)C[C@H]2N3)cc1,0.854 ± 0.034
8,CCNC(=O)c1cc2c(c(-c3cccc(-c4cncnc4)c3)n1)[C@@H](CCO)N(C(C)=O)C2,1.085 ± 0.0084
9,COc1cccc(CNC(=O)C[C@@H]2CC[C@@H]3[C@H](COc4ccc(NS(=O)(=O)c5ccccc5F)cc4C(=O)N3C)O2)c1,0.97 ± 0.047
10,O=C(Nc1ccccc1F)N1[C@@H]2CNC[C@H]1[C@@H]2c1ccc(-c2ccncc2)cc1,1.17 ± 0.014
11,COc1ccc2c3c([nH]c2c1)[C@@H](CO)N(Cc1cccc(F)c1)C[C@]31CCN(CC1)C(C)=O,0.952 ± 0.083
12,CCS(=O)(=O)NCC[C@@H]1CC[C@H](NC(=O)Nc2cc(Cl)cc(Cl)c2)[C@@H](CO)O1,1.2 ± 0.082
13,CCCN(C)C[C@H]1OCCCC[C@@H](C)Oc2ccc(NC(=O)CCCN(C)C)cc2C(=O)N([C@@H](C)CO)C[C@@H]1C,1.17 ± 0.058
14,COc1ccccc1S(=O)(=O)N[C@@H]1C=C[C@@H](CC(=O)N2CCOCC2)O[C@@H]1CO,1.11 ± 0.068
15,CN1C(=O)c2cc(NC(=O)Cc3cccs3)ccc2OC[C@H]2O[C@@H](CC(=O)NCCCN3CCOCC3)CC[C@H]21,1.06 ± 0.15
16,Cc1ccc(S(=O)(=O)Nc2ccc3c(c2)C(=O)N([C@H](C)CO)C[C@@H](C)[C@@H](CN(C)S(=O)(=O)c2cccs2)OCCCC[C@H](C)O3)cc1,1.08 ± 0.093
17,C[C@@H]1CN([C@H](C)CO)C(=O)c2cccc(NS(=O)(=O)c3cn(C)cn3)c2O[C@@H]1CN(C)Cc1ccc(Oc2ccccc2)cc1,1 ± 0.11
18,COc1ccccc1-c1ccccc1[C@H]1[C@H](C#N)N(C(=O)CN(C)C)[C@H]1CO,1.01 ± 0.1
19,COc1ccc(NC(=O)N2C[C@@]3(C2)CN([C@H](CO)c2[nH]c4cc(OC)ccc4c32)C(C)=O)cc1,0.924 ± 0.068
20,COCC(=O)N1CC(=O)N2[C@@H](CO)[C@@H](c3ccc(-c4ccccc4F)cc3)[C@@H]2C1,1.01 ± 0.045
21,CN1C(=O)c2cc(NS(=O)(=O)c3cccc(F)c3)ccc2OC[C@@H]2O[C@@H](CC(=O)N3CCc4ccccc4C3)CC[C@H]21,0.993 ± 0.055
22,C[C@@H]1CN([C@@H](C)CO)C(=O)c2cc(NC(=O)CCC(F)(F)F)ccc2O[C@@H](C)CCCCO[C@@H]1CN(C)C(=O)c1ccncc1,1.03 ± 0.061
23,Cc1ccc(-c2ccccc2[C@H]2[C@@H](C#N)N(c3ncc(-c4ccccc4)s3)[C@H]2CO)cc1,0.985 ± 0.14
24,CO[C@H]1CN(C)C(=O)c2ccc(NC(=O)c3ccno3)cc2OC[C@@H](C)N(S(C)(=O)=O)C[C@H]1C,1.12 ± 0.052

row,SMILES,viability index
1,COCC(=O)N1[C@H](CO)[C@@H](c2ccc(C#Cc3ccccc3F)cc2)[C@@H]1C#N,1.11 ± 0.068
2,COc1ccccc1NC(=O)N[C@@H]1CC[C@@H](CCNS(=O)(=O)c2ccc(Cl)cc2)O[C@@H]1CO,0.913 ± 0.093
3,C[C@@H]1CN([C@H](C)CO)C(=O)c2cc(NC(=O)NC3CCCCC3)ccc2O[C@@H](C)CCCCO[C@H]1CN(C)S(C)(=O)=O,1.123 ± 0.01
4,C[C@H]1CN([C@@H](C)CO)S(=O)(=O)c2ccc(C#Cc3ccccc3F)cc2O[C@@H]1CN(C)C(=O)Cc1cccnc1,0.94 ± 0.15
5,COc1ccc2c3c([C@H](CO)N(Cc4ccccc4OC)C[C@]33CN(C)C3)n(C)c2c1,0.978 ± 0.012
6,O=C(C[C@@H]1C[C@@H]2c3cc(NC(=O)C4CCOCC4)ccc3O[C@@H]2[C@@H](CO)O1)NCc1cccnc1,0.983 ± 0.039
7,CNC(=O)C[C@H]1CC[C@@H]2[C@H](COc3ccc(NC(=O)c4ccccc4F)cc3C(=O)N2C)O1,1.08 ± 0.12
8,COc1ccc(NC(=O)N(C)C[C@H]2Oc3ccc(NC(=O)Nc4cccc5ccccc45)cc3CC(=O)N([C@H](C)CO)C[C@H]2C)cc1,0.98 ± 0.014
9,O=C(C[C@H]1CC[C@@H](NS(=O)(=O)c2ccccc2F)[C@@H](CO)O1)NCCCN1CCOCC1,0.984 ± 0.15
10,C[C@H]1CC(=O)NCC/C=C\C[C@@H](c2cccc(Cl)c2)NC1=O,0.934 ± 0.1
11,CC(C)(O)C#Cc1ccc([C@@H]2[C@@H](CO)N3CCCCN(S(C)(=O)=O)C[C@@H]23)cc1,1.09 ± 0.017
12,N#C[C@H]1N[C@@H](CO)[C@@H]1c1ccc(C#CC2CCCCC2)cc1,1.068 ± 0.0084
13,C[C@@H]1CN([C@@H](C)CO)C(=O)CCCn2nncc2CO[C@H]1CN(C)C(=O)Nc1ccc2c(c1)OCCO2,1.04 ± 0.062
14,OC[C@@H]1[C@H](c2ccc(C#CC3(O)CCCC3)cc2)[C@H]2CN(Cc3cncnc3)CCCCN12,1.07 ± 0.044
15,Cc1noc(C)c1NC(=O)Nc1ccc2c(c1)CC(=O)N([C@@H](C)CO)C[C@@H](C)[C@H](CN(C)Cc1ccc(C(F)(F)F)cc1)O2,1.06 ± 0.039
16,COc1ccccc1NC(=O)N1CCCCN2[C@@H](CO)[C@@H](c3ccc(-c4cccc(C#N)c4)cc3)[C@@H]2C1,0.93 ± 0.028
17,COc1ccccc1CNC(=O)C[C@@H]1CC[C@@H]2[C@H](COC[C@H](O)CN2Cc2ccc3c(c2)OCO3)O1,1.08 ± 0.045
18,O=C(N[C@@H]1C=C[C@H](CC(=O)N2CCN(c3ccccc3)CC2)O[C@H]1CO)c1ccccc1,1.12 ± 0.051
19,CCCC(=O)Nc1ccc2c(c1)C(=O)N(C)[C@H]1CC[C@H](CC(=O)N3CCCCC3)O[C@H]1CO2,1.14 ± 0.078
20,O=C(C[C@H]1C[C@@H]2c3cc(NC(=O)CC4CC4)ccc3O[C@@H]2[C@H](CO)O1)NCC1CC1,1.12 ± 0.018
21,O=C(Nc1ccc(F)cc1)N1CC(=O)N2[C@H](CO)[C@H](c3ccc(C4=CCCC4)cc3)[C@@H]2C1,0.994 ± 0.029
22,CS(=O)(=O)N1CC(=O)N2[C@H](CO)[C@H](c3ccc(Br)cc3)[C@@H]2C1,1.016 ± 0.0034
23,C[C@H]1CCCCO[C@H](CN(C)S(=O)(=O)c2cn(C)cn2)[C@@H](C)CN([C@@H](C)CO)C(=O)c2cc(N(C)C)ccc2O1,1.03 ± 0.062
24,COc1ccccc1S(=O)(=O)N(C)C[C@H]1OCc2cn(nn2)CCCC(=O)N([C@H](C)CO)C[C@@H]1C,1.07 ± 0.035

row,SMILES,viability index
1,CN1CCN(C(=O)C[C@@H]2CC[C@@H]3[C@H](COc4ccc(NC(=O)c5cccs5)cc4C(=O)N3C)O2)CC1,0.944 ± 0.073
2,COc1ccc2c3c([C@@H](CO)N(C[C@]33CCN(CC3)C(=O)c3cnccn3)C(C)=O)n(C)c2c1,0.958 ± 0.058
3,COc1ccc2c3c([C@@H](CO)N(C[C@]33CCN(CC3)S(C)(=O)=O)C(=O)CN(C)C)n(C)c2c1,0.956 ± 0.029
4,C[C@@H]1CCCCO[C@H](CN(C)C(=O)C2CCCCC2)[C@H](C)CN([C@H](C)CO)C(=O)c2cc(NS(=O)(=O)c3ccccc3)ccc2O1,0.904 ± 0.053
5,CCCNC(=O)C[C@@H]1CC[C@@H]2[C@H](COC[C@H](O)CN2Cc2ccncc2)O1,1.06 ± 0.028
6,C[C@@H]1CN([C@H](C)CO)C(=O)c2cc(C#CC3(O)CCCC3)cnc2O[C@@H]1CN(C)S(=O)(=O)c1cccc(F)c1,1.04 ± 0.032
7,CCCNC(=O)C[C@@H]1CC[C@@H]2[C@H](COC[C@@H](O)CN2C(=O)c2ccc(F)cc2)O1,1.02 ± 0.033
8,O=C(Nc1ccc(F)cc1)N1CC(=O)N2[C@H](C1)[C@@H](c1ccc(-c3cccc(F)c3)cc1)[C@@H]2CO,1.07 ± 0.05
9,CN1c2ccc(Br)cc2[C@H]2[C@H](CCN2C(=O)C2CCC2)[C@@H]1CO,1.04 ± 0.076
10,CN1c2ccc(Br)cc2[C@H]2[C@H](CCN2S(=O)(=O)c2ccccc2F)[C@H]1CO,1.08 ± 0.044
11,CN(C)CC(=O)N1C[C@@H]2N[C@H](C1)[C@@H]2c1ccc(C2=CCCCC2)cc1,0.898 ± 0.013
12,CN1CCN(C(=O)C[C@@H]2C[C@@H]3c4cc(NS(C)(=O)=O)ccc4O[C@@H]3[C@@H](CO)O2)CC1,0.994 ± 0.013
13,CCN(C[C@H]1[C@@H](c2ccccc2)[C@H](CO)N1C(=O)COC)S(C)(=O)=O,1.05 ± 0.035
14,Cc1ccc(OC(=O)N(C)C[C@H]2OCc3ccccc3-c3ccccc3C(=O)N([C@H](C)CO)C[C@H]2C)cc1,0.992 ± 0.024
15,OC[C@@H]1[C@@H](c2ccccc2)C2(CN(CCC(F)(F)F)C2)N1Cc1nccs1,1.09 ± 0.046
16,COc1ccccc1-c1ccccc1[C@@H]1[C@@H](CO)N(C(=O)CN(C)C)[C@H]1C#N,1.06 ± 0.021
17,CCCC(=O)Nc1ccc2c(c1)C(=O)N(C)C[C@@H](OC)[C@H](C)CN(C(=O)c1ccccn1)[C@@H](C)CO2,1.07 ± 0.018
18,Cc1noc(C)c1NC(=O)Nc1ccc2c(c1)CC(=O)N([C@@H](C)CO)C[C@@H](C)[C@@H](CN(C)Cc1ccc(C(F)(F)F)cc1)O2,1.01 ± 0.09
19,CC(C)C#Cc1ccc([C@H]2[C@@H](CO)N3C(=O)CN(C(=O)Cc4ccccc4)C[C@@H]23)cc1,1.07 ± 0.021
20,C=C(C)C[C@H]1CCn2cc(nn2)COCCNC1=O,1.06 ± 0.015
21,C[C@@H]1CN([C@@H](C)CO)C(=O)c2cc(NC(=O)Nc3ccc(C(F)(F)F)cc3)ccc2O[C@@H](C)CCCCO[C@@H]1CN(C)S(=O)(=O)c1ccc(Cl)cc1,1.04 ± 0.038
22,COc1ccc(-c2ccc3n(c2=O)C[C@H]2[C@H](CO)[C@@H](C(=O)NCC4CC4)N(C(=O)NC(C)C)[C@@H]32)cc1,1.1 ± 0.03
23,CN(C)C(=O)c1cccc(-c2ccccc2[C@@H]2[C@H](C#N)N(C(=O)C3CCCCC3)[C@H]2CO)c1,1.03 ± 0.049

# — the supplement of paper PMC4723716
